Test results published in article PMC6042327 (BMC Biology, 2018).

Molecular target: the molecule itself
Assay: native MS; protein 5-10 uM in 0.20-0.75 M ammonium acetate pH 7.0, electrosprayed, source temperature 20 °C; self-association (monomer to dimer)

B1: SGTA FLΔQ ([…]) (domain or fragment)
chain: not shown
notes: SGTA, human, […] (lacks the Q-rich region); also called construct lacking the Q-rich region; not shown: thioredoxin A, N-terminal, cleaved; His6, N-terminal, cleaved
  stoichiometry N: 2
